This series concerns the molecule itself. The experiment in a line: SEC. (SEC sorts molecules by how far they enter the pores of the column.)

B1: GST-M9 (domain or fragment)
chain: not shown
The stoichiometry N is the number of molecules, sites or subunits per partner or assembly. For B1, the “stoichiometry N” value was determined as 2.

The record behind these values is article PMC2173498 (The Journal of Cell Biology, 2002).
